Cell viability data for 75 molecules are collected here from the supplement of paper PMC10600219.

Structures are written as SMILES. Where a name gives a salt, the structure may show the parent alone. In all, about 2,800 compounds were measured (“cell viability relative to vehicle”: median about 1.1, lowest 2% from about 0.19 on). This is one part of the list.

The test system of the experiment is NCI-H2228 parental. The experiment is described as follows: cell viability relative to vehicle (fraction of vehicle); NCI-H2228 is an ALK-positive lung cancer line and DTP means drug-tolerant persister; higher = less growth inhibition. Conditions: 100 nM; treatment time 6 days. The method in brief:
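Parental NCI-H2228 cells and drug-tolerant persister cells (made with 1000 nM of a targeted drug for 13 days) were seeded in 384-well plates. The next day, the 3114-agent TargetMol anti-cancer compound library was added at 100 nM, with DMSO as vehicle. After 6 days, ATP was read with the CellTiter-Glo 3D Cell Viability Assay. Each value is cell viability relative to vehicle-treated cells.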
As to `CCC(=O)Nc1cccc(Oc2nc(Nc3ccc(N4CCN(C)CC4)cc3OC)ncc2Cl)c1`, the cell viability stood at 1.22.

As to `CC(C)C(C)C(O)C(O)C(C)C1CCC2C3COC(=O)C4CC(O)C(O)CC4(C)C3CCC12C` (stereo not given) [Brassinolide], the cell viability stood at 1.08.

As for `CCC(=O)O[C@]1(C(=O)CO)CC[C@H]2[C@@H]3CCC4=CC(=O)CC[C@]4(C)[C@H]3CC[C@@]21C` [17 alpha-propionate], the cell viability is 1.15.

Regarding `O=c1ccccn1CC1(O)CCN(Cc2ccccc2)CC1`, the cell viability amounted to 1.05.

Take `O=C(/C=C/c1ccc(O)c(O)c1)O[C@@H]1C[C@](O)(C(=O)O)C[C@@H](O)[C@H]1O` [Chlorogenic Acid]: the cell viability came out at 1.14.

On to `CCOc1cc2c(c(F)c1OCC)C(=N)N(CC(=O)c1cc(N3CCOCC3)c(OC)c(C(C)(C)C)c1)C2` [Atopaxar Hydrobromide], for which the cell viability turned out to be 1.18.

For `Fc1ccc(-c2c3cccc(C(F)(F)F)c3nn2Cc2ccc(F)cc2Cl)cc1`, the cell viability was found to be 1.04.

For `CCC(=O)N1CC[C@H](Nc2ncnc3c2CN(c2cnc(OC)c(C(F)(F)F)c2)CC3)C1` [Leniolisib], the cell viability amounted to 0.947.

Turning to `Oc1cccc(-c2nc(N3CCOCC3)c3oc4ncccc4c3n2)c1`, the cell viability came to 0.866.

Regarding `Cn1cc(-c2ccc3c(c2)CCN3C(=O)Cc2cccc(C(F)(F)F)c2)c2c(N)ncnc21`, the cell viability is 1.04.

Turning to `Cc1cc(C(=O)Nc2cccc(C(=O)Nc3cccc(C(F)(F)F)c3)c2)on1`, the cell viability turned out to be 1.13.

Consider `Cc1cc(SCc2sc(-c3ccc(C(F)(F)F)cc3)nc2C)ccc1OCC(=O)O`, for which the cell viability amounted to 0.994.

For `C[C@@H]1CCCCCCCCCCCCC(=O)C1` [Muscone], the cell viability is 1.13.

Regarding `C#C[C@]1(O)CC[C@H]2[C@@H]3CCC4=CC(=O)CC[C@@H]4[C@H]3CC[C@@]21CC` [Levonorgestrel], the cell viability turned out to be 1.17.

As to `N#C/C(=C\c1ccc(O)c(O)c1)C(=O)NCc1ccccc1`, the cell viability is 0.871.

Take `CCN(CC)CCCCNc1ncc2cc(-c3cc(OC)cc(OC)c3)c(NC(=O)NC(C)(C)C)nc2n1`: the cell viability stood at 0.993.

As for `CC[C@@H](CO)NCCN[C@@H](CC)CO` [Ethambutol dihydrochloride], the cell viability is 1.1.

Consider `C/C=C(/C)C(=O)O[C@@H]1[C@H](OC(C)=O)c2c(ccc3ccc(=O)oc23)OC1(C)C` [Praeruptorin A], for which the cell viability came to 1.15.

As for `CC(C)C[C@H](NC(=O)CNC(=O)c1cc(Cl)ccc1Cl)B1OC(=O)C(CC(=O)O)(CC(=O)O)O1`, the cell viability came to 0.106.

`Cc1cc(OCc2nnc(SC3CCCC3)n2-c2cccnc2)ccc1-c1ccc(S(C)(=O)=O)cc1`: the cell viability was 0.785.

Turning to `CNC(=O)c1ccc(C)c(-n2c(C)cc(OCc3ccc(F)cc3F)c(Br)c2=O)c1`, the cell viability is 1.1.

For `CC(=O)Nc1ccn([C@@H]2O[C@H](CO)[C@@H](O)[C@H]2O)c(=O)n1` [N4-Acetylcytidine], the cell viability is 1.06.

On to `CC(C)S(=O)(=O)c1ccc2nccc(Nc3ccc4scnc4c3)c2c1`, for which the cell viability was 1.08.

Take `C=C1CC[C@H]2C(=C)CC[C@H]3C(=C)C(=O)O[C@@H]3[C@@H]12` [Dehydrocostus Lactone]: the cell viability was found to be 1.13.

For `COCCOc1ccc(N2CCN(CCn3ncc4c3nc(N)n3nc(-c5ccco5)nc43)CC2)cc1` [Preladenant], the cell viability was 1.02.

Turning to `O=c1c(-c2ccc(O[C@@H]3O[C@H](CO)[C@@H](O)[C@H](O)[C@H]3O)cc2)coc2cc(O)cc(O)c12` [Sophoricoside], the cell viability was found to be 0.949.

As to `Cc1ccc(-n2nc(C(C)(C)C)cc2NC(=O)Nc2ccc(OCCN3CCOCC3)c3ccccc23)cc1` [Doramapimod], the cell viability amounted to 0.986.

Consider `C=CC(=O)Nc1cccc(Oc2nc(Nc3ccc(N4CCN(C)CC4)cc3)nc3ccsc23)c1` [Olmutinib], for which the cell viability is 1.09.

Consider `C[C@H](NC(=O)C(=O)Nc1ccccc1C(C)(C)C)C(=O)N[C@@H](CC(=O)O)C(=O)COc1c(F)c(F)cc(F)c1F` [Emricasan], for which the cell viability was 0.971.

Turning to `CCc1c(-c2ccc(C(=O)NC)nc2)cnc(N)c1-c1ccc(O)cc1`, the cell viability stood at 1.09.

On to `c1ccc(CN(CC2=NCCN2)c2ccccc2)cc1` [Antazoline hydrochloride], for which the cell viability amounted to 1.11.

With `CN(C)Cc1ccc(S(=O)(=O)n2ccc(/C=C/C(=O)NO)c2)cc1` [Resminostat hydrochloride], the cell viability was determined as 1.02.

Consider `Nc1ncnc2n[nH]c(Nc3ccc(F)cc3)c12`, for which the cell viability was found to be 0.961.

Consider `CN(C)CC/C=C1/c2ccccc2COc2ccc(CC(=O)O)cc21` [Olopatadine hydrochloride], for which the cell viability turned out to be 0.889.

As to `CCc1cnc(N2CCC(c3nc(COc4ccc(-n5cnnn5)cc4)cs3)CC2)nc1`, the cell viability is 0.962.

As to `NC[C@H](O)c1ccc(O)c(O)c1` [Noradrenaline bitartrate monohydrate], the cell viability worked out at 1.03.

Turning to `NC[C@H](O)c1ccc(O)c(O)c1` [Noradrenaline bitartrate], the cell viability amounted to 1.16.

In the case of `CCN(CC)CCNC(=O)c1ccc(N)cc1` [Procainamide hydrochloride], the cell viability was found to be 1.16.

In the case of `O=C(O)c1ccc(-c2ccc(C=C3SC(=S)N(Cc4ccccc4)C3=O)o2)cc1` [Leukadherin-1], the cell viability worked out at 1.06.

`O=C(O)C1=C(CSc2nnnn2CS(=O)(=O)O)CS[C@@H]2[C@H](NC(=O)[C@H](O)c3ccccc3)C(=O)N12` [Cefonicid sodium]: the cell viability turned out to be 1.1.

On to `CCc1cc2c(cc1CC)CC(NC[C@H](O)c1ccc(O)c3[nH]c(=O)ccc13)C2` [Indacaterol maleate], for which the cell viability amounted to 0.963.

`CCc1cc2c(cc1CC)CC(NC[C@H](O)c1ccc(O)c3[nH]c(=O)ccc13)C2` [Indacaterol]: the cell viability turned out to be 1.07.

As to `Cc1c(-c2ccc(O)cc2)n(Cc2ccc(OCCN3CCCCCC3)cc2)c2ccc(O)cc12` [Bazedoxifene acetate], the cell viability stood at 1.24.

For the molecule `O=C(O)c1cccc(-c2noc(-c3ccccc3F)n2)c1` [Ataluren], the cell viability is 1.06.

On to `Nc1ccc(S(=O)(=O)Nc2nccs2)cc1` [Sulfathiazole], for which the cell viability stood at 1.04.

Consider `Cc1ccc(NC(=O)CCCCCC(=O)Nc2ccccc2N)cc1` [Pimelic diphenylamide 106], for which the cell viability is 0.963.

As to `Cc1ccc(-c2cc(C(F)(F)F)nn2-c2ccc(S(N)(=O)=O)cc2)cc1` [Celecoxib], the cell viability came out at 1.14.

Take `CC(C)[N+]1(C)[C@@H]2CC[C@H]1C[C@@H](OC(=O)C(CO)c1ccccc1)C2` (stereo not given in full) [Ipratropium Bromide]: the cell viability was determined as 1.12.

For the molecule `CC(C)[N+]1(C)[C@@H]2CC[C@H]1C[C@@H](OC(=O)C(CO)c1ccccc1)C2` (stereo not given in full) [Ipratropium bromide monohydrate], the cell viability came to 1.11.

Take `Cc1cc(O)c(-c2ccc(C(C)CN)cc2)c2c1[nH]c(=O)c1sccc12` (stereo not given): the cell viability came out at 0.116.

In the case of `CCn1c(N)c(C(=O)NC)c(=O)c2ccc(C#CC(C)(O)COC)nc21` (stereo not given), the cell viability is 1.03.

With `CCOC(=O)C1=C(C)NC(=S)NC1c1cccc(O)c1` (stereo not given) [Monastrol], the cell viability was 0.991.

For `CC[C@H]1OC(=O)[C@H](C)[C@@H](O[C@H]2C[C@@](C)(OC)[C@@H](O)[C@H](C)O2)[C@H](C)[C@@H](O[C@@H]2O[C@H](C)C[C@H](N(C)C)[C@H]2O)[C@](C)(O)C[C@@H](C)CN(C)[C@H](C)[C@@H](O)[C@]1(C)O` [Azithromycin dihydrate], the cell viability was determined as 1.37.

For the molecule `OCCn1cc(-c2ccc3c(c2)CC/C3=N\O)c(-c2ccncc2)n1`, the cell viability stood at 1.2.

In the case of `CN1CCc2nc(C(=O)N[C@@H]3C[C@@H](C(=O)N(C)C)CC[C@@H]3NC(=O)C(=O)Nc3ccc(Cl)cn3)sc2C1` [Edoxaban Tosylate Monohydrate], the cell viability was determined as 1.15.

In the case of `CN[C@H]1CC[C@@H](c2ccc(Cl)c(Cl)c2)c2ccccc21` [Sertraline hydrochloride], the cell viability was found to be 1.18.

In the case of `NC(=O)C1CCCc2c1[nH]c1ccc(Cl)cc21` (stereo not given) [Selisistat], the cell viability was found to be 1.07.

In the case of `O=C(/C=C/c1ccc(O)c(O)c1)O[C@H](Cc1ccc(O)c(O)c1)C(=O)O` [Rosmarinic acid], the cell viability came out at 1.08.

Regarding `CCS(=O)(=O)c1cccc(-c2cc(C(=O)NC3CCN(C)CC3)c(C)c3[nH]c4ncc(C)cc4c23)c1`, the cell viability came to 0.617.

Consider `C[C@H]1CC[C@@]2(OC1)O[C@H]1C[C@H]3[C@@H]4CC[C@@H]5C[C@@H](O)CC[C@]5(C)[C@H]4CC[C@]3(C)[C@H]1[C@@H]2C` [Sarsasapogenin], for which the cell viability turned out to be 1.13.

`C[C@]12CC[C@@H]3c4ccc(O)cc4C[C@@H](CCCCCCCCC[S+]([O-])CCCC(F)(F)C(F)(F)F)[C@H]3[C@@H]1CC[C@@H]2O` (stereo not given in full) [Fulvestrant]: the cell viability came to 1.2.

Regarding `COc1cc(CNC(=O)CCCC/C=C/C(C)C)ccc1O` [Capsaicin], the cell viability came out at 1.07.

On to `CO/N=C(\C(=O)N[C@@H]1C(=O)N2C(C(=O)O)=C(COC(C)=O)CS[C@H]12)c1csc(N)n1` [Cefotaxime sodium], for which the cell viability came out at 0.888.

For the molecule `COc1ccc(-c2cc(=O)c3c(O)c(OC)c(O)cc3o2)cc1OC` [Eupatilin], the cell viability turned out to be 1.13.

Take `O=C(O)CC(C(=O)O)n1c(O)c(C2=c3cc(Br)ccc3=NC2=O)sc1=S` (stereo not given): the cell viability is 1.01.

On to `CC1(C)CN(C(=O)c2ccc(-c3cccc4nc(NC(=O)C5CC5)nn34)cc2)C1` [Solcitinib], for which the cell viability came out at 1.11.

As for `Clc1ccc2nsnc2c1NC1=NCCN1` [Tizanidine hydrochloride], the cell viability came to 0.991.

Regarding `Cc1cc(Nc2cc(N3CCN(C)CC3)nc(Sc3ccc(NC(=O)C4CC4)cc3)n2)n[nH]1` [Tozasertib], the cell viability was 0.158.

Consider `CC(=O)Nc1nnc(S(N)(=O)=O)s1` [Acetazolamide], for which the cell viability was 1.12.

For `Nc1nc(OCc2cc(Br)cs2)c2[nH]cnc2n1` [Lomeguatrib], the cell viability is 0.971.

`COc1c(Nc2ncc(Cl)c(N[C@H]3[C@@H](C(N)=O)[C@@H]4C=C[C@H]3C4)n2)ccc2c1CC[C@@H](N1CCOCC1)CC2`: the cell viability came to 0.799.

For the molecule `N[C@H]1CC[C@H](N[C@@H]2C[C@H]2c2ccccc2)CC1`, the cell viability was found to be 1.05.

In the case of `Cc1cc(C(C)Nc2ccccc2)c2nc(N3CCOCC3)cc(=O)n2c1` (stereo not given), the cell viability was 0.993.

As to `CCOC(=O)C1=C(N)Oc2ccc(Br)cc2C1C(C#N)C(=O)OCC` (stereo not given), the cell viability came to 1.13.

As to `O=[N+]([O-])c1ccc(Nc2nc(N3CCOCC3)nc(N3CCOCC3)n2)cc1`, the cell viability stood at 1.14.
